Usually mortality stands for the share of the test organisms that died.

This assay concerns Nephotettix cincticeps (green rice leafhopper) exhibiting resistance to organophosphorus series insecticides. The assay is described as follows: Biotest against Nephotettix cincticeps (green rice leafhopper) resistant to organophosphorus-series insecticides, spray on rice seedlings. The note with it: 48 h, read-out: insect mortality.
With `N#C/N=C1\COCCN1Cc1ccc(Cl)nc1` [Compound 2, 4-(2-chloro-5-pyridylmethyl)-3-cyanoiminomorpholine], the mortality at 200 ppm was 100%.

For `N#C/N=C1\COCCN1Cc1cnc(Cl)s1` [Compound 3], the mortality at 200 ppm was 100%.

In the case of `CN1CN/C(=N\[N+](=O)[O-])N(Cc2ccc(Cl)nc2)C1` [Compound 11, 1-(2-chloro-5-pyridylmethyl)-5-methyl-2-nitroimino-hexahydro-1,3,5-triazine], the mortality at 200 ppm was 100%. For the compound `CN1CN/C(=N\[N+](=O)[O-])N(Cc2cnc(Cl)s2)C1` [Compound 12], the mortality at 200 ppm was 100%. As to `CON1CN/C(=N\[N+](=O)[O-])N(Cc2ccc(Cl)nc2)C1` [Compound 14, 1-(2-chloro-5-pyridylmethyl)-5-methoxy-2-nitroimino-hexahydro-1,3,5-triazine], the mortality at 200 ppm is 100%. `CC(C)N1CN/C(=N\[N+](=O)[O-])N(Cc2ccc(Cl)nc2)C1` [Compound 15]: the mortality at 200 ppm was determined as 100%. Consider `CC(C)N1CN(Cc2ccc(Cl)nc2)C(=N[N+](=O)[O-])N(Cc2ccc(Cl)nc2)C1` [Compound 16], for which the mortality at 200 ppm amounted to 100%. For `CN1CN/C(=N\C#N)N(Cc2ccc(Cl)nc2)C1` [Compound 17, 1-(2-chloro-5-pyridylmethyl)-5-neath-2-cyanoimino-hexahydro-1,3,5-triazine], the mortality at 200 ppm was found to be 100%. In the case of `CC(C)c1noc(C(C)N2CN(C)CN/C2=N\[N+](=O)[O-])n1` (stereo not drawn) [Compound 40], the mortality at 200 ppm was found to be 100%.

Values taken from patent US6344453B1, “Insecticidal heterocyclic compounds” (priority 1989, dated 2002).
